The values below come from publication PMC4336329 (PLoS ONE, 2015).

The campaign covered roughly 310,000 compounds. About 14,000 (4.5%) showed an effect of 50% or more. Effects have a minus sign here. This is one part of the list.
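Note: peak tail current of the secondary pulse compared with the same well before compound.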

This assay deals with human ether-à-go-go-related gene (hERG) potassium channel (human, UniProt Q12809). Description: primary screen, population patch clamp on CHO cells stably expressing hERG.
Sequence of human ether-à-go-go-related gene (hERG) potassium channel (Q12809 whole entry, looked up): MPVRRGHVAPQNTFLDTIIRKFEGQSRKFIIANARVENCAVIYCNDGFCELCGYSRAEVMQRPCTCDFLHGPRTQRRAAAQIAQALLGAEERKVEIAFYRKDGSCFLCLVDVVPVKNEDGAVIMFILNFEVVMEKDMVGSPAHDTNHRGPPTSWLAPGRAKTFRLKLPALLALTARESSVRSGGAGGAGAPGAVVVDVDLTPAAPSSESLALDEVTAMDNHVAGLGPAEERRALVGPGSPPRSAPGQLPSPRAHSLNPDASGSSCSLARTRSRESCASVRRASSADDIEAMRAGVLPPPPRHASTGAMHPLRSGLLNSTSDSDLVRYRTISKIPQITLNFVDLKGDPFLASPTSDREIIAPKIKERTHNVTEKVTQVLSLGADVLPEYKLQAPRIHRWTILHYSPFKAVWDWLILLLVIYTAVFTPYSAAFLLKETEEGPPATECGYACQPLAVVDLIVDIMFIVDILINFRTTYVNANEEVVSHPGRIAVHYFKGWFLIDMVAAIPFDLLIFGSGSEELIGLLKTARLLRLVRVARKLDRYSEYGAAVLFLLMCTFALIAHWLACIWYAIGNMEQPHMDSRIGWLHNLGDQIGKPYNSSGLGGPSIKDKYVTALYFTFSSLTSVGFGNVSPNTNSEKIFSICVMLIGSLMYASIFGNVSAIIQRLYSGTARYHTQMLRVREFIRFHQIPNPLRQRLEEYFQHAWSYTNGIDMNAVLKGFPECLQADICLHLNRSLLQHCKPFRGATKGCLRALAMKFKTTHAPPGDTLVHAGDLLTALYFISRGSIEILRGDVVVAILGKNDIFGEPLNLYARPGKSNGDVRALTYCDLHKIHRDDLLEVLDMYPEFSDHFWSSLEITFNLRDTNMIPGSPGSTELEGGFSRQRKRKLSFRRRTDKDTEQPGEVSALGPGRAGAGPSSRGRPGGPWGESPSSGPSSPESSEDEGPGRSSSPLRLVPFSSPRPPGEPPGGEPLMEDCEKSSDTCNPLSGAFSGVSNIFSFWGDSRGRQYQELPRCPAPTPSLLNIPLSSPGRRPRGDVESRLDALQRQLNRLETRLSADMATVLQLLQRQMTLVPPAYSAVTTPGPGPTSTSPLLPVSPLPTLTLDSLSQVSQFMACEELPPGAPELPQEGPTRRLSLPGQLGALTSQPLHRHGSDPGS
`CCN1CCN(c2nc3c(C)cccn3c(=O)c2/C=C(\C#N)C(=O)NCCOC)CC1`: the “hERG current change (%, negative = inhibition) at 10uM” value is -3.74%. As for `CCCCCc1nnc(NC(=O)NS(=O)(=O)c2ccc(C)cc2)s1`, the figure is 18.8%. On to `COc1cccc(N2C(=O)CC(N3CCN(C(=O)c4ccco4)CC3)C2=O)c1` (centres unmarked), for which the “hERG current change (%, negative = inhibition) at 10uM” value is given as 9.29%. The same measure for `CCCC(=O)Nc1ccc(C=C(C(C)=O)C(C)=O)cc1`: -0.43%; for `CO/N=C(\C)C(Cc1ccc(Cl)nc1)Cc1ccc(Cl)nc1`: 2.67%; for `CNC(=O)COC(=O)c1cccnc1SC`: 3.53%. In the case of `CCOC(=O)C1=C(CSc2nc(C)ccc2C#N)OC(N)=C(C#N)C1c1cccc(OC)c1OC` (centres unmarked), the “hERG current change (%, negative = inhibition) at 10uM” value is 3.79%. The same measure for `CCCCCNC(=O)Cc1ccc(OC)cc1`: 1.41%. As for `O=[N+]([O-])c1cc(S(=O)(=O)N2CCCC2)ccc1N/N=C1/CCCc2ccccc21`, the figure is 6.93%; as for `CC1=NN(c2ccccc2)C(=O)/C1=C/c1cccc(C)c1`, 5.65%. On to `Nc1nc(SCC(=O)NCc2ccc3c(c2)OCO3)n[nH]1`, for which the “hERG current change (%, negative = inhibition) at 10uM” value turned out to be 12.4%. The same measure for `Cc1ccc(S(=O)(=O)N2CCC(=O)N(CCO)CC2)cc1`: 6.67%; for `CCCOc1ccc(-c2c(C(=O)N/N=C/c3ccc(C)cc3)nnn2-c2nonc2N)cc1`: 5.24%. As for `C=CCOc1cccc(C(=O)NC(c2ccccc2)C(C)C)c1` (centres unmarked), the figure is 6.23%; as for `O=C(CSc1nc2cc3c(cc2c(=O)n1CCC1=CCCCC1)OCO3)NCc1ccco1`, 12.8%.

Turning to `O=C(CCCOc1ccccc1)N1CCN(S(=O)(=O)c2cccs2)CC1`, the “hERG current change (%, negative = inhibition) at 10uM” value is given as -2.04%. As for `COc1ccc(Nc2ccccc2)c(C)c1`, the figure is 1.41%. The same measure for `C=CCNC(=O)COC(=O)COc1ccc(Cl)cc1C`: -3.32%; for `Cc1cc(C)n2nc(C(=O)OCC(=O)NCc3ccccc3)nc2n1`: 16.9%; for `Cc1ccc(CN2CCSc3ccc(C(=O)NCc4ccco4)cc32)cc1`: -14.4%.

Consider `COc1ccccc1NS(=O)(=O)c1cccc(C(=O)N/N=C/c2c(CO)cnc(C)c2O)c1`, for which the “hERG current change (%, negative = inhibition) at 10uM” value is 15.1%.

As for `COc1ccc(CCc2nc(C)ccc2O)cc1.Cl`, the “hERG current change (%, negative = inhibition) at 10uM” value was 9.9%. Turning to `c1ccc2c(c1)nc(NCc1ccc3c(c1)OCO3)n2CCN1CCOCC1`, the “hERG current change (%, negative = inhibition) at 10uM” value is on record as -66.8%. On to `O=C(NCc1cccs1)C1CCC(CNS(=O)(=O)c2cccc3nsnc23)CC1` (centres unmarked), for which the “hERG current change (%, negative = inhibition) at 10uM” value was 3.29%.

Turning to `COc1ccccc1C(OC(=O)c1ccco1)C(=O)NCc1ccc(F)cc1` (centres unmarked), the “hERG current change (%, negative = inhibition) at 10uM” value is listed as -13.9%. As for `C/C(CC(=O)Nc1cccc(Cl)c1C)=N\NC(=O)C(=O)NCC(C)C`, the figure is -20%; as for `CN1CCN(S(=O)(=O)c2cccc(C(=O)NCCOc3ccccc3F)c2)CC1`, -15.4%.

As for `COc1ccccc1CN1CC(C(=O)N2CCC(OC)CC2)CCC1=O` (centres unmarked), the “hERG current change (%, negative = inhibition) at 10uM” value is 6.45%. Consider `CCN(CC)CCN1C(=O)c2oc3ccccc3c(=O)c2C1c1ccc(C)cc1` (centres unmarked), for which the “hERG current change (%, negative = inhibition) at 10uM” value is given as -26.8%. As for `O=C(CNC(=O)Cc1ccccc1)NCC(=O)OCc1ccc(C(=O)c2ccccc2)cc1`, the figure is -5.33%. `Cn1cc(P(=S)(N2CCOCC2)N2CCOCC2)cc1P(=S)(N1CCOCC1)N1CCOCC1`: the “hERG current change (%, negative = inhibition) at 10uM” value was 17.6%. The same measure for `CC(=O)Cc1cc2cc([N+](=O)[O-])ccc2oc1=O`: 2.29%; for `CCc1cc(C(=O)N2CCCC(CNC(=O)c3ccc(-c4ccccc4)cc3)C2)no1` (centres unmarked): -58.1%. As for `Cc1ccc(OC(C)C(=O)N2CCc3ccccc32)cc1` (centres unmarked), the figure is 10.7%. Take `CCOC(=O)c1ccc(NC(=O)c2nc[nH]c2C(=O)NCc2ccccc2)cc1`: the “hERG current change (%, negative = inhibition) at 10uM” value was 1.22%. For `CCOCc1nnc(NC(=O)c2ccc(NC(C)=O)cc2)s1`, the “hERG current change (%, negative = inhibition) at 10uM” value is 45.9%. As for `CCN(c1cc(C)cc(C)c1)S(=O)(=O)c1nnc(NC(=O)C(C)C)s1`, the figure is 9.34%. For `CNC(=S)N(CCc1c(C)[nH]c2ccc(Cl)cc12)Cc1cccs1`, the “hERG current change (%, negative = inhibition) at 10uM” value is recorded as -17%.

As for `CCCSc1nnc(NC(=O)c2ccco2)s1`, the “hERG current change (%, negative = inhibition) at 10uM” value stood at 2.42%. As for `Cn1c(Sc2ccccc2Cl)c(C=O)c2ccccc21`, the figure is 3.6%; as for `O=C(C[n+]1cc(-c2ccc(Cl)cc2)n2c1CCCCC2)c1ccccc1.[Br-]`, -12.5%; as for `CCOC(=O)c1c(NC(=O)COc2ccc3ccc(=O)oc3c2)sc(C(=O)N(C)C)c1C`, 20.9%.

Consider `CN(C)/C=N/c1sc2c(c1C#N)CCCCC2`, for which the “hERG current change (%, negative = inhibition) at 10uM” value is listed as -9.89%.

In the case of `C=CCn1c(SCC(N)=O)nc(C)cc1=O`, the “hERG current change (%, negative = inhibition) at 10uM” value was determined as 18.4%.
